Data from the supplement of paper PMC4604168 (melanoma cell lines).
The list shows a part of the results. Repeats are few or missing, and single values can be far off.

system: G361; test: cell count relative to DMSO control; melanoma cells; higher = more viable cells; conditions: library dose: low library concentration; 72 h
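Note: cell number obtained by counting DAPI-stained nuclei in high-throughput microscope images with image analysis software, screen run in 1,536-well plates.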

Row | Compound | cell count
1 | Cc1cc(N2CCOCC2)cc2[nH]c(-c3c(NC[C@@H](O)c4cccc(Cl)c4)cc[nH]c3=O)nc12 + O=C(Oc1ccc([N+](=O)[O-])cc1)N1CCC(C(O)(c2ccc3c(c2)OCO3)c2ccc3c(c2)OCO3)CC1 [JZL184] (first compound 0.2 µM, partner dose 1 µM) | 105%
2 | COc1cc2c(Oc3ccc4[nH]c(C)cc4c3F)ncnc2cc1OCCCN1CCCC1 [cediranib] + O=C(Oc1ccc([N+](=O)[O-])cc1)N1CCC(C(O)(c2ccc3c(c2)OCO3)c2ccc3c(c2)OCO3)CC1 [JZL184] (first compound 0.4 µM, partner dose 1 µM) | 109%
3 | CCN(CC)CCNC(=O)c1c(C)[nH]c(/C=C2\C(=O)Nc3ccc(F)cc32)c1C [sunitinib] + C[As](C)SC[C@H](NC(=O)CC[C@H](N)C(=O)O)C(=O)NCC(=O)O [Darinaparsin] (first compound 0.4 µM, partner dose 0.4 µM) | 108%
4 | COc1ccc2c(c1)CCC1C2CCC2(C)C(NCCCCCCN3C(=O)C=CC3=O)CCC12 (configuration not stated) + C/C(O)=C(\C#N)C(=O)Nc1cc(Br)ccc1Br [LFM-A13] (first compound 0.4 µM, partner dose 2 µM) | 95.2%
5 | COc1cc2c(Oc3ccc4[nH]c(C)cc4c3F)ncnc2cc1OCCCN1CCCC1 [cediranib] + Cc1cc(SCc2sc(-c3ccc(C(F)(F)F)c(F)c3)nc2C)ccc1OCC(=O)O [GW0742] (first compound 0.4 µM, partner dose 2 µM) | 116%
6 | Cn1cncc1[C@@](N)(c1ccc(Cl)cc1)c1ccc2c(c1)c(-c1cccc(Cl)c1)cc(=O)n2C [tipifarnib] + Cc1cc(SCc2sc(-c3ccc(C(F)(F)F)c(F)c3)nc2C)ccc1OCC(=O)O [GW0742] (first compound 0.01 µM, partner dose 2 µM) | 88.1%
7 | O=C(Nc1ccccc1)c1cc([N+](=O)[O-])ccc1Cl + Cc1cc(SCc2sc(-c3ccc(C(F)(F)F)c(F)c3)nc2C)ccc1OCC(=O)O [GW0742] (first compound 2 µM, partner dose 2 µM) | 87.5%
8 | O=C(Oc1ccc([N+](=O)[O-])cc1)N1CCC(C(O)(c2ccc3c(c2)OCO3)c2ccc3c(c2)OCO3)CC1 + O=c1cc(-c2cccc3c2Sc2ccccc2S3)oc(N2CCOCC2)c1 [KU55933] (first compound 1 µM, partner dose 1 µM) | 87.7%
9 | C[C@]1(c2nc3c(C(N)=O)cccc3[nH]2)CCCN1 [Veliparib] + C/C(O)=C(\C#N)C(=O)Nc1cc(Br)ccc1Br [LFM-A13] (first compound 1.4 µM, partner dose 2 µM) | 101%
10 | O=C(Nc1ccccc1)c1cc([N+](=O)[O-])ccc1Cl + O=C(Oc1ccc([N+](=O)[O-])cc1)N1CCC(C(O)(c2ccc3c(c2)OCO3)c2ccc3c(c2)OCO3)CC1 [JZL184] (first compound 2 µM, partner dose 1 µM) | 100%
11 | CCc1ccc(CCOc2ccc(CC3SC(=O)NC3=O)cc2)nc1 (configuration not stated) [pioglitazone] + O=C(Oc1ccc([N+](=O)[O-])cc1)N1CCC(C(O)(c2ccc3c(c2)OCO3)c2ccc3c(c2)OCO3)CC1 [JZL184] (first compound 2 µM, partner dose 1 µM) | 106%
12 | O=C(Nc1cc(C(F)(F)F)cc(C(F)(F)F)c1)c1cc(Cl)ccc1O + Cn1cc(C2=C(c3cn(C4CCN(Cc5ccccn5)CC4)c4ccccc34)C(=O)NC2=O)c2ccccc21 [Enzastaurin] (first compound 0.016 µM, partner dose 0.8 µM) | 99.9%
13 | Cc1ccc(Nc2nccc(N(C)c3ccc4c(C)n(C)nc4c3)n2)cc1S(N)(=O)=O [Pazopanib] + Cn1cc(C2=C(c3cn(C4CCN(Cc5ccccn5)CC4)c4ccccc34)C(=O)NC2=O)c2ccccc21 [Enzastaurin] (first compound 0.4 µM, partner dose 0.8 µM) | 92.4%
14 | O=C(Nc1cc(C(F)(F)F)cc(C(F)(F)F)c1)c1cc(Cl)ccc1O + N.N.[Cl][Pt][Cl] [cisplatin] (first compound 0.016 µM, partner dose 1.6 µM) | 91.4%
15 | O=C(Nc1cccc(Cl)c1)Nc1ncc(CCNc2ncnc3ccsc23)s1 + O=C(Oc1ccc([N+](=O)[O-])cc1)N1CCC(C(O)(c2ccc3c(c2)OCO3)c2ccc3c(c2)OCO3)CC1 [JZL184] (first compound 0.0008 µM, partner dose 1 µM) | 107%
16 | N#Cc1c(O)c2c(-c3ccc(-c4ccccc4O)cc3)csc2[nH]c1=O + Cc1cc(SCc2sc(-c3ccc(C(F)(F)F)c(F)c3)nc2C)ccc1OCC(=O)O [GW0742] (first compound 2 µM, partner dose 2 µM) | 108%

Row | Compound | cell count
17 | O=C(Nc1cccc(Cl)c1)Nc1ncc(CCNc2ncnc3ccsc23)s1 + Cc1cc(SCc2sc(-c3ccc(C(F)(F)F)c(F)c3)nc2C)ccc1OCC(=O)O [GW0742] (first compound 0.0008 µM, partner dose 2 µM) | 118%
18 | O=C(Oc1ccc([N+](=O)[O-])cc1)N1CCC(C(O)(c2ccc3c(c2)OCO3)c2ccc3c(c2)OCO3)CC1 + Cn1cc(/C=C2\C(=O)Nc3cccnc32)c2ccccc21 [GW441756] (first compound 1 µM, partner dose 0.4 µM) | 111%
19 | Cn1cnc2c(F)c(Nc3ccc(Br)cc3Cl)c(C(=O)NOCCO)cc21 [selumetinib] + C[As](C)SC[C@H](NC(=O)CC[C@H](N)C(=O)O)C(=O)NCC(=O)O [Darinaparsin] (first compound 0.015 µM, partner dose 0.4 µM) | 115%
20 | CN(C)S(=O)(=O)c1ccc2c(c1)/C(=C/c1cc3c([nH]1)CCCC3)C(=O)N2 + Cc1cc(SCc2sc(-c3ccc(C(F)(F)F)c(F)c3)nc2C)ccc1OCC(=O)O [GW0742] (first compound 0.4 µM, partner dose 2 µM) | 98.3%
21 | C/C(O)=C(\C#N)C(=O)Nc1cc(Br)ccc1Br + CC(C)CCN1c2nc(Nc3cc(F)c(O)c(F)c3)ncc2N(C)C(=O)C1C [BID1870] (first compound 2 µM, partner dose 0.2 µM) | 96.3%
22 | Cc1cc(N2CCOCC2)cc2[nH]c(-c3c(NC[C@@H](O)c4cccc(Cl)c4)cc[nH]c3=O)nc12 + C/C(O)=C(\C#N)C(=O)Nc1cc(Br)ccc1Br [LFM-A13] (first compound 0.2 µM, partner dose 2 µM) | 82.4%
23 | CN(C)S(=O)(=O)c1ccc2c(c1)/C(=C/c1cc3c([nH]1)CCCC3)C(=O)N2 + O=C(Oc1ccc([N+](=O)[O-])cc1)N1CCC(C(O)(c2ccc3c(c2)OCO3)c2ccc3c(c2)OCO3)CC1 [JZL184] (first compound 0.4 µM, partner dose 1 µM) | 87.9%
24 | C/C(O)=C(\C#N)C(=O)Nc1cc(Br)ccc1Br + O=c1cc(-c2cccc3c2Sc2ccccc2S3)oc(N2CCOCC2)c1 [KU55933] (first compound 2 µM, partner dose 1 µM) | 95.6%
25 | C/C(O)=C(\C#N)C(=O)Nc1cc(Br)ccc1Br + CCCCCCCCCCCC1=C(O)C(=O)C=C(O)C1=O [Embelin] (first compound 2 µM, partner dose 1.2 µM) | 117%
26 | C/C(O)=C(\C#N)C(=O)Nc1cc(Br)ccc1Br + O=C(Oc1ccc([N+](=O)[O-])cc1)N1CCC(C(O)(c2ccc3c(c2)OCO3)c2ccc3c(c2)OCO3)CC1 [JZL184] (first compound 2 µM, partner dose 1 µM) | 98.2%
27 | N#Cc1c(O)c2c(-c3ccc(-c4ccccc4O)cc3)csc2[nH]c1=O + O=C(Oc1ccc([N+](=O)[O-])cc1)N1CCC(C(O)(c2ccc3c(c2)OCO3)c2ccc3c(c2)OCO3)CC1 [JZL184] (first compound 2 µM, partner dose 1 µM) | 95.1%
28 | Cn1nnc2c(C(N)=O)ncn2c1=O [temozolomide] + Cc1cc(SCc2sc(-c3ccc(C(F)(F)F)c(F)c3)nc2C)ccc1OCC(=O)O [GW0742] (first compound 2 µM, partner dose 2 µM) | 98.6%
29 | NC1(c2ccc(-c3nc4ccn5c(=O)[nH]nc5c4cc3-c3ccccc3)cc2)CCC1 + C[As](C)SC[C@H](NC(=O)CC[C@H](N)C(=O)O)C(=O)NCC(=O)O [Darinaparsin] (first compound 0.4 µM, partner dose 0.4 µM) | 96%
30 | COc1ccc(-c2ccc3c(N4CCOCC4)nc(N4C[C@@H](C)O[C@@H](C)C4)nc3n2)cc1CO + O=C(Oc1ccc([N+](=O)[O-])cc1)N1CCC(C(O)(c2ccc3c(c2)OCO3)c2ccc3c(c2)OCO3)CC1 [JZL184] (first compound 0.02 µM, partner dose 1 µM) | 109%
31 | Cc1ccc(NC(=O)c2cccc(N(C)C)c2)cc1NC(=O)c1ccc(O)cc1 + O=C(Oc1ccc([N+](=O)[O-])cc1)N1CCC(C(O)(c2ccc3c(c2)OCO3)c2ccc3c(c2)OCO3)CC1 [JZL184] (first compound 2 µM, partner dose 1 µM) | 101%
32 | Cn1sc(=O)n(Cc2ccccc2)c1=O + C[C@]12O[C@H](C[C@]1(O)CO)n1c3ccccc3c3c4c(c5c6ccccc6n2c5c31)CNC4=O [Lestaurtinib] (first compound 0.4 µM, partner dose 0.004 µM) | 123%
